Results taken from paper PMC6919601, “Identification of Plasmodium dipeptidyl aminopeptidase allosteric inhibitors by high throughput screening” (PLoS ONE, 2019).
Several values for one entry are separate records, joined by “and”; a condition that tells them apart may be missing. Identical values can stand only once. In all, about 110,000 compounds went through this assay and about 230 (0.21%) showed an effect of 50% or more. This is one part of the list.

Biological target: DPAP1 (Plasmodium falciparum, UniProt Q8IIJ9)
Test: primary screen, percent inhibition; read by cleavage of a fluorogenic dipeptide substrate; higher = more effect of the substance
Design: species or system P. falciparum D10 trophozoite lysates; single well
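Note: 30 min substrate incubation versus DMSO and 10 µM JCP410 controls.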

DPAP1, sequence (Q8IIJ9 whole entry, looked up): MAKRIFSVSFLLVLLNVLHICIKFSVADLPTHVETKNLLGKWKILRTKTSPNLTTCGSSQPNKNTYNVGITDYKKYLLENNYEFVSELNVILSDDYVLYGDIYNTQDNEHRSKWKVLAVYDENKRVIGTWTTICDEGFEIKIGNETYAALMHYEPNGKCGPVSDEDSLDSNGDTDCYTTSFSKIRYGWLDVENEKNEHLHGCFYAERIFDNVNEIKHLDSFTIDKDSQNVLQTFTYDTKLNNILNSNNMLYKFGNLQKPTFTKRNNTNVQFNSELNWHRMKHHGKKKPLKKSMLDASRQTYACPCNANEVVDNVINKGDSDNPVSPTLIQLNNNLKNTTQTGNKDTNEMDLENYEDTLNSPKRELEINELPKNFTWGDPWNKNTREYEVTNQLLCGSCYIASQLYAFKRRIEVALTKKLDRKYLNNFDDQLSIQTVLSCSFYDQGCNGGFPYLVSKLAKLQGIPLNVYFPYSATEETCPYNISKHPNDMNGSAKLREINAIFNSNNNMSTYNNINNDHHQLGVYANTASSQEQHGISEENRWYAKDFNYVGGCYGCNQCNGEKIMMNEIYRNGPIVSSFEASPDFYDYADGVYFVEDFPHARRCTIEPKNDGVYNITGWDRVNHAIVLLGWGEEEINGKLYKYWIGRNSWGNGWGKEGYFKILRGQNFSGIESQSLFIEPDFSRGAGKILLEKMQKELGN

Compound	% Inhibition @ 10 uM
Cc1ccc(CSc2nnc(C)n3c2cc2oc(C)cc23)cc1	-4.37%
COc1cccc(CN(C(=O)/C=C/c2ccco2)C2CCS(=O)(=O)C2)c1 (stereo not shown)	0.366%
COc1ccc(-c2nc3cc(C)ccc3o2)cc1	-4.16%
CC1=C(C(=O)Nc2ccccc2)C(c2ccc(Cl)cc2Cl)C(C(=O)Nc2ccccc2)=C(C)N1	5.37%
COc1ccc(NC(=O)C2C3C=CC(O3)C2C(=O)O)c(OC)c1 (stereo not shown)	1.88%
O=C1C=C(NCc2cccnc2)CC(c2ccccc2)C1 (stereo not shown)	-0.988%
Cc1cc(C)c2c(n1)SCC(=O)N2CC(=O)NC(C)C12CC3CC(CC(C3)C1)C2 (stereo not shown)	5.73%
CC(=O)c1ccc(NC(=O)c2cc(-c3ccc(C)o3)nc3ccccc23)cc1	1.28%
CCOC(=O)N1CCN(C(=O)Nc2cnc3ccccc3c2O)CC1	-1.07%
Cc1ccc2oc(-c3ccccc3)c/c(=N\CCCO)c2c1	5.44%
CCN1C(=O)S/C(=C/c2ccc(OC)c(OC)c2OC)C1=O	2.22%
NS(=O)(=O)c1ccc(NC2=NC(=O)C(CC(=O)Nc3ccc(Cl)cc3)S2)cc1 (stereo not shown)	2.01%
Cc1ccc(N2C(=O)C3C4C=CC(C4)C3C2=O)cc1Cl (stereo not shown)	2.44%
CCCn1c2ccccc2c2cnn(CC(=O)NCCc3ccsc3)c(=O)c21	3.95%
COc1cccc(NC(=O)c2sc(-c3ccccc3)nc2-c2ccc([N+](=O)[O-])cc2)c1	-6.82%
CO[C@H](Cc1ccccc1O)[C@@H](O)c1ccccc1	-7.63%
COc1ccc(CNC(=O)c2cc3c(=O)n4cccc(C)c4nc3n2C)cc1	4.73%
N#Cc1ccc(Oc2ccc(C(F)(F)F)cn2)cc1	-3.49%
CCOc1ccc(-n2cc(-c3ccccc3)c3c(NCCCN(C)C)ncnc32)cc1	0.426%
O=S1(=O)N=C(NCc2ccccc2)c2ccccc21	-1.05%
O=C(c1cc2ccccc2oc1=O)N(Cc1ccc(Cl)cc1)Cc1ccco1	-4.02%

Compound	% Inhibition @ 10 uM
Cc1nn(C)c(C(=O)Nc2cc(C(F)(F)F)cc(C(F)(F)F)c2)c1Br	-4.6%
CCc1nn2c(=O)cc(COc3ccc(/C=C4\C(=N)N5OC(C)=CC5=NC4=O)cc3OC)nc2s1	-5.76%
C[C@@H](C[C@H](NC(=O)c1ccc(-c2ccccc2Cl)nc1)C(=O)NC1(C#N)CCSCC1)c1ccccc1	4.54%
COc1ccc(OC)c(C2C(C#N)=C(N)OC3=C2C(=O)CC(C)(C)C3)c1 (stereo not shown)	1.08%
CC(C)NC(=O)c1ccc(COc2ccc(C(C)(C)C)cc2)o1	-4.33%
O=C(c1cccnc1)N1N=C(C2CC2)CC1(O)C(F)(F)F (stereo not shown)	-3.23% and 3.65%
COc1ccc(C(=O)N/C(=C\c2ccccc2)C(=O)Nc2ccc(C(=O)O)cc2)cc1	0.746%
CN(c1ccccc1)S(=O)(=O)c1ccc(Cl)cc1	0.827%
C[n+]1cc(C(=O)N2CCCCC2)ccc1/C=C/c1c[nH]c2ccccc12	-9.33%
CC(=O)c1ccc(NC(=O)C2(c3ccccc3)CCCC2)cc1	2.65%
CN(C)c1cccc(NC(=O)c2ccc(C(C)(C)C)cc2)c1	0.512%
COc1ccc(C2CC(c3cccs3)=NN2C(=O)CN2CCCCC2)cc1 (stereo not shown)	9.88%
COc1ccc(C2=NC3(CCN(C(=O)c4ccc(C(C)(C)C)cc4)CC3)NC2=O)cc1	-3.22%
CCCN1CCN(C(=O)c2cn(C)c(=O)c3cc(OC)c(OC)cc23)CC1	-2.49%
COc1ccccc1N(CC(=O)NCc1ccccc1Cl)S(C)(=O)=O	21.6%
COc1cc(OC)cc(C(=O)NCc2cccs2)c1	0.13%
COc1cc(C2CC(=O)Nc3[nH]nc(-c4ccccc4)c32)cc(OC)c1OC (stereo not shown)	1.76%
O=C(CCCNS(=O)(=O)c1cccs1)N1CCc2ccccc2C1	4.06%
CCC1CCc2c(sc(NC(=O)C3CCCCC3C(=O)O)c2C#N)C1 (stereo not shown)	4.01%
CCOc1ccc(C(=O)NCCc2ccccc2)cc1S(=O)(=O)N1CCCCCC1	2.6%
COc1ccc(N(CC(=O)Nc2cccc(C)c2)S(C)(=O)=O)cc1OC	-3.25%

Compound	% Inhibition @ 10 uM
NC1=C(c2nc3ccccc3s2)C(=O)CN1CCN1CCOCC1	-5.63%
Cc1ccc(/C=C2N=C(/C=C/c3ccc(C)cc3)OC\2=O)cc1	-0.597%
O=C(NC1CCN(Cc2ccccc2)CC1)c1cc2c(Cl)nc3ccccc3c2s1	9.02%
OCCOCCn1/c(=N/c2ccccc2)oc2ccccc21	-5.13%
COc1cc(CN2CCN(Cc3cccnc3)CC2)cc(OC)c1OC	2.54%
COc1ccc(C2C(C(=O)Nc3ccccc3C)=C(C)N=c3s/c(=C/c4cnn(C)c4)c(=O)n32)cc1 (stereo not shown)	-3.05%
O=C(c1nc2ccccc2o1)C(NC(=O)[C@H](CS(=O)(=O)Cc1ccccc1OC(F)F)NC(=O)N1CCOCC1)c1cccs1 (stereo partly shown)	-6.68%
COc1cccc(C2CC(=O)Nc3c2c(=O)n(C)c(=O)n3C)c1OC (stereo not shown)	-2.24%
Cc1ccc(C(=O)Nc2sc3c(c2C(N)=O)CCCC3)cc1	0.907%
O=C(COc1ccc(Cl)cc1)N1CCN(c2ccccc2)CC1	5.92%
O=S(=O)(c1ccccc1)N1CCN(c2cc(Cl)ccc2Cl)CC1	5.03%
Cc1cccc(C)c1OCC(=O)N1CCOCC1	-3.75%
C=CCc1c(C)c2ccc(OCC(=O)c3ccccc3)cc2oc1=O	7.5%
O=C1NC(=O)N(c2ccccc2)C(=O)/C1=C\Nc1ccc(S(=O)(=O)CCO)cc1	-0.996%
C/C(=C/C(=O)NCc1ccccc1)C(=O)O	-9.33%
COc1ccc(-c2cc3c(c(O)n2)c(=O)oc2ccccc23)cc1	3.61%
Cc1[nH]c2ccccc2c1CCC(=O)NC1CCCCC1	0.968%
CCN1CCN(CCNC(=O)Cn2ccc3cc(S(=O)(=O)N4CCCCC4)ccc32)CC1	-4.85%
CNC(=O)Cn1ncc2c3ccccc3n(Cc3ccccc3F)c2c1=O	-9.07%
